Source: PMC12136788
This is one part of the list.

B1: chr12:442458:442559:+|3pUTR|ENSG00000120647|unk|total|mutant (ssRNA)
RNA: GGGAGUUCUACAGUCCGACGAUCCCUGAGCAGAGCCUGAAUUACGUUUUUGGGCAAUUUCAUGGUGUUUCACCAGAGGGCGCCCGAGACUCAAACGAAAUGUCCAUCUGGAAAGAUUCGGGAGACACUUUGCCGAGGGGAUGACAACAGAGGAUUGAGCAUCA
B2: chrX:52696895:52697518:-|three_prime_utr|ENSG00000241476|control|control|control (ssRNA)
RNA: GGGAGUUCUACAGUCCGACGAUCGAACGUGGUGACCUUUCACGAACAUGGGCAUGGCUGCGGACCCCUCGUCAUCAGGUGCAUAGCAAGUGAAAGCAAGUGUUCACAACAGUGAAAAGUUGAGCGUCAUUUUUCUUAGUGUGCCAACAGAGGAUUGAGCAUCA
B3: ENSG00000107863:be:win_651|CDS|ENSG00000107863|bound_else_gene|NA|bound_elsewhere_windowed (ssRNA)
RNA: GGGAGUUCUACAGUCCGACGAUCAGUUGAAAUAUCUCCUCCUGACUCAUCAUUGAGCAAACAGCAAACCAGUACACCAGUACUGACACAACCUGGUAGGGCCUAUAGAAUGGAAAUACAAGUGCCUCCAUCACCAACAGAUGUCAACAGAGGAUUGAGCAUCA
B4: chr5:72208420:72208520:+|3pUTR|ENSG00000131711|msi1_unk|FALSE|overlapping (ssRNA)
RNA: GGGAGUUCUACAGUCCGACGAUCCUCAUGAUCAUGACCUUUUUGGUAGUAUUCUUAAACAAAAUUCUACAGAGACUAAAUGUUAGCGAUGAUCCUCCAUUUUCAAUUUUAACCAAUUCUGUCCCCUUUCUCAAAACCCUGAGCCAACAGAGGAUUGAGCAUCA
B5: ENSG00000070961:be:win_2001|CDS|ENSG00000070961|bound_else_gene|NA|bound_elsewhere_windowed (ssRNA)
RNA: GGGAGUUCUACAGUCCGACGAUCAAAUGAUAUUGUCACCGGCCUUACAUGCAUUGCUGUUGUGGGGAUUGAAGAUCCUGUGAGACCUGAGGUGCCAGAUGCAAUUAAAAAGUGUCAGAGGGCUGGAAUUACUGUGCGGAUGGUCAACAGAGGAUUGAGCAUCA
B6: ENSG00000144554:stop:overlap|stop_codon|ENSG00000144554|stop_codon|NA|stop_codon (ssRNA)
RNA: GGGAGUUCUACAGUCCGACGAUCACGAAGUAAGUGCUGGAGAAAAGGAGCAAGAUAGUGAUGAGAGUUAUGAUGACUCUGAUUAGACCCCAGAUAAAUUGUUGCCUGCUUCUGUGUCUCUGCCAGCCUGUGAUCAUUUUGUGUCAACAGAGGAUUGAGCAUCA
B7: chr19:2274630:2275679:-|three_prime_utr|ENSG00000188305|control|control|control (ssRNA)
RNA: GGGAGUUCUACAGUCCGACGAUCACACCUGGUCCAGGCCUGCCCAGGAGGCAGGGCUGGGGCUGAGGUCAGCGUCUCCAUGAUAGCCAAGACACCCUCUUCCUGCAGAGUCCAGGAGCGCAGCAGAGAGAGCAAUGCCCCACUCAACAGAGGAUUGAGCAUCA
B8: chr2:119156242:119156801:-|three_prime_utr|ENSG00000144119|control|control|control (ssRNA)
RNA: GGGAGUUCUACAGUCCGACGAUCCAAGGGAGGAAGGGACGCCCGAGCCCUUGAGGCGGCGGCACAGACUUUGCAAACCUGAUUAGACUGGACAGGCAGGGCCGGGAGCCUGCCCUCCUCAGACAGCCUCCUCCCAGUGCCUAGCAACAGAGGAUUGAGCAUCA
B9: ENSG00000136451:be:win_2701|3pUTR|ENSG00000136451|bound_else_gene|NA|bound_elsewhere_windowed (ssRNA)
RNA: GGGAGUUCUACAGUCCGACGAUCUGUAAAUAUGGACAUCACUUUUUUUUUCUUUGAGAAAACACUUGUAUCAGCUUUGUGGUGUUUUCAGGGAGACAGCUGUCUGCAUUCCCUGUAGAAACCCAGCAAUGAUUAUGCACGUUGCAACAGAGGAUUGAGCAUCA
B10: chr17:77200548:77200649:+|CDS|ENSG00000129657|msi1|total|mutant (ssRNA)
RNA: GGGAGUUCUACAGUCCGACGAUCUAUUGACAAAGCCAGAGAGAUCAUGUGUCAGUCUUUGACGUGGAGAAAGCAGCAUCAGGCCGACUACAUUCUUGAAACCUGGACCCCUCCUCAGGUCCUUCAGGAUUACUACGCGGGAGGCAACAGAGGAUUGAGCAUCA
B11: chr12:96943601:96943709:+|CDS|ENSG00000139350|unk|FALSE|unique (ssRNA)
RNA: GGGAGUUCUACAGUCCGACGAUCAACUCAGUGUUUCCUCCAAGAAAAAAUCCAGUAACUUCAAGUACUUCAGUAUUGCAUUCUAGUCCUCUUAAUGUUUUUAUGGGAUCUCCAGGGAAAGAGGAAAAUGAAAACCGUGAUCUACAACAGAGGAUUGAGCAUCA
B12: chr10:30312946:30313047:-|3pUTR|ENSG00000107951|unk|total|mutant (ssRNA)
RNA: GGGAGUUCUACAGUCCGACGAUCUCUUAUUCACAUAUAAAUUAAAGUGGGUUGGUACUGAUAUCAAAAAAUGUUUAUGUUUUCCGAACAGACAUUUCAGUCACUGCAUUCUCCGGUAUUCCAAACCAAAUAUGAUGACAUCAACAACAGAGGAUUGAGCAUCA
B13: chr15:34983303:34983404:-|CDS|ENSG00000198146|msi1|FALSE|unique (ssRNA)
RNA: GGGAGUUCUACAGUCCGACGAUCGCUGAAAACAAUUUAAAAAUGCUAAAGAUUCAACAGUGUGUGGUAGCCAACAAACUACCUAGAAACAGGCCAUAUGUUUGCAAUAUUUGUUUUAAGCACUUUGAAACACCAUCAAAAUUACAACAGAGGAUUGAGCAUCA
B14: chr1:108699644:108699745:+|CDS|ENSG00000134186|unk|FALSE|bound_elsewhere (ssRNA)
RNA: GGGAGUUCUACAGUCCGACGAUCGAUUCCAAGAAAGAGAAAAAACACAGUAGAAGCAGAAGCAGAGAAAGGAAACACAGAAGUAGGAGUCGAAGUAGAAAUGCAGGGAAACGAAGUAGAAGUAGAAGCAAAGAGAAAUCAAGUCAACAGAGGAUUGAGCAUCA

Biological target: MSI1 full-length (mouse, UniProt Q61474 1-362)
UniProt Q61474, sequence (Q61474 whole entry): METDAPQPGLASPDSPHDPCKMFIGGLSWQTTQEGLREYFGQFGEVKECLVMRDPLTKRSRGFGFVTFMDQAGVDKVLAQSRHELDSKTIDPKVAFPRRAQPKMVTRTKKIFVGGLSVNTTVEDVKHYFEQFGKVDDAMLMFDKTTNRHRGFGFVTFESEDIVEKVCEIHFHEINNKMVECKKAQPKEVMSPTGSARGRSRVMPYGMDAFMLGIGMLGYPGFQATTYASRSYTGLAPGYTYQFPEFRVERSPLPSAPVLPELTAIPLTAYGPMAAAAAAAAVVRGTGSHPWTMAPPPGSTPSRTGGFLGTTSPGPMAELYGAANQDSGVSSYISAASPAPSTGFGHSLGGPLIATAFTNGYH
Test: nsRBNS (natural sequence RNA bind-n-seq); RBNS binding buffer (assumed for nsRBNS): 25 mM Tris pH 7.5, 150 mM KCl, 3 mM MgCl2, 0.01% Triton X-100, 500 ug/ml BSA, 20 U/ml SUPERase-In, 4 C; UNK is unkempt and MSI1 is Musashi-1; names of the RNAs are library labels; protein concentration not given here; high values mean tight binding

Row | Binder | binding signal
1 | B1 | 0.346 enrichment R
2 | B2 | 0.468 enrichment R
3 | B3 | 0.531 enrichment R
4 | B4 | 0.766 enrichment R
5 | B5 | 0.416 enrichment R
6 | B6 | 0.542 enrichment R
7 | B7 | 0.399 enrichment R
8 | B8 | 0.516 enrichment R
9 | B9 | 0.266 enrichment R
10 | B10 | 0.418 enrichment R
11 | B11 | 0.878 enrichment R
12 | B12 | 0.314 enrichment R
13 | B13 | 0.421 enrichment R
14 | B14 | 5.52 enrichment R
